{"source": "PubChem BioAssay AID1460", "about": "(National Center for Advancing Translational Sciences (NCATS), 2008)", "note": "The whole screen tested about 270,000 compounds, of which about 5,800 (2.1%) were called active. Inconclusive means that the source gave no clear call. Such entries were picked first, then a sample of the others. The call rests on the fitted dose curve; in most records, active means well fitted inhibition curve with a large enough effect; inconclusive means small, poorly fitted or top-dose-only effect; inactive means flat fitted curve, though single readings scatter. A potency beside an inconclusive call is a rough fit, not a confirmed value. Potency means the concentration at half of the fitted maximal effect; tags describe the fitted curve by direction and shape."}
{"target": "Microtubule-associated protein tau (Homo sapiens) (UniProt P10636)", "sequence (P10636 whole entry, looked up, the tested form may be a part)": "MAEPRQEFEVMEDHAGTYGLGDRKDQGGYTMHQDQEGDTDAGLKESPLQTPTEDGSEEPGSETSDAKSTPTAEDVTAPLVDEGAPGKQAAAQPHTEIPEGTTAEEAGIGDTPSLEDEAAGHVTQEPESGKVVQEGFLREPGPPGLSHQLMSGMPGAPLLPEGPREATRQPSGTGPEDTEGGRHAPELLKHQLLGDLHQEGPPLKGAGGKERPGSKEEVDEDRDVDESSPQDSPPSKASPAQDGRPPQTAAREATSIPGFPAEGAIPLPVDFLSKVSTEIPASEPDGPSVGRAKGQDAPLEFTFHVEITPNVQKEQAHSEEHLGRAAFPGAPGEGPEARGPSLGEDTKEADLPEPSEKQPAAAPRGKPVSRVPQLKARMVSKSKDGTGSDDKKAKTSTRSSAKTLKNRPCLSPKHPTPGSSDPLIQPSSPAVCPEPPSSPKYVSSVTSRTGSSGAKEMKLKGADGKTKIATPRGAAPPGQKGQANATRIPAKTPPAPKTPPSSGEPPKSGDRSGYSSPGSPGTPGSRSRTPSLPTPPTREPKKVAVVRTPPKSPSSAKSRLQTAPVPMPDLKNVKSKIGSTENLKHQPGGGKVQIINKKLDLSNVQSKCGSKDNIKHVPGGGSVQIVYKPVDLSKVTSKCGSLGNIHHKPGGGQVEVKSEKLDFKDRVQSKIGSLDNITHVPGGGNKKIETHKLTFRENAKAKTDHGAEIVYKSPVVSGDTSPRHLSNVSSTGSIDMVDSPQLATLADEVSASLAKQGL", "assay": "qHTS for Inhibitors of Tau Fibril Formation, Thioflavin T Binding; further: nearly all actives have a fitted effect of over 55% in size", "settings": "recombinant tau K18 P301L (four-repeat tau fragment), heparin-induced fibrillization, ThT fluorescence; series mostly up to 57.4 µM", "in_short": "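Recombinant human tau K18 fragment […] carrying P301L, 15 uM unlabeled plus 0.24 uM Alexa 594-labeled, was fibrillized with 20 uM heparin in 100 mM sodium acetate pH 7 for 6 hr at 37 C; 30 uM ThT fluorescence read after 1 hr.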"}
{"smiles": "O=C(c1ccco1)N1CCN(C(=O)C2CC(c3ccc(Cl)cc3)=NO2)CC1", "note": "(centres undefined)", "Potency": "inconclusive: 7.94 µM [inhibitor, partial curve]"}
{"smiles": "CSC1=N/C(=C\\C=C\\c2cccs2)C(=O)S1", "Potency": "active: 14.1 µM"}
{"smiles": "O=[N+]([O-])c1nn(-c2ccc3c(c2)OCCO3)n(O)c1=NCc1ccc(F)cc1", "Potency": "inactive"}
{"smiles": "COC(=O)c1cc(=O)n(Cc2cccs2)c(=Nc2ccc(F)cc2)s1", "Potency": "inconclusive: 39.8 µM [inhibitor, single point]"}
{"smiles": "CCCC(=O)Nc1ccc(NC(=O)c2sc3ccccc3c2Cl)cc1", "Potency": "inconclusive: 0.708 µM [inhibitor, full curve, poor fit]"}
{"smiles": "COC1(NS(=O)(=O)c2ccc(Br)cc2)C(C)=CC(=O)C=C1C", "Potency": "inactive"}
{"smiles": "Cn1c(SCC(=O)Nc2ccc(Br)cc2F)nnc1-c1ccco1", "Potency": "inconclusive: 28.2 µM [inhibitor, single point]"}
{"smiles": "COc1ccc(NC(=O)c2ccc(NC3CC(=O)N(c4ccc(C)cc4C)C3=O)cc2)cc1", "note": "(centres undefined)", "Potency": "inconclusive: 1.26 µM [inhibitor, full curve]"}
{"smiles": "O=C(CCl)c1ccc2[nH]c(=O)oc2c1", "Potency": "inactive"}
{"smiles": "Cc1ccc(/C=C/C2=Cc3c(sc(NC(=O)CSc4n[nH]c(N)n4)c3C#N)C(C)(C)C2)o1", "Potency": "inconclusive: 20 µM [inhibitor, partial curve]"}
{"smiles": "COc1ccc(C(=O)C2CCCN(C(=O)c3noc4c3CCCC4)C2)cc1F", "note": "(centres undefined)", "Potency": "inactive"}
{"smiles": "CN(C)c1ccc(C2CNC(c3ccc(Cl)c([N+](=O)[O-])c3)c3[nH]c4ccccc4c32)cc1", "note": "(centres undefined)", "Potency": "inconclusive: 11.2 µM [inhibitor, partial curve]"}
{"smiles": "O=C(c1ccc(Cn2c(=S)[nH]c3ccc(N4CCOCC4)cc3c2=O)cc1)N1CCC(N2CCCCC2)CC1", "Potency": "inconclusive: 39.8 µM [inhibitor, single point]"}
{"smiles": "CC(C)c1ccc(S(=O)(=O)Nc2ccc(O)c(Sc3nc4ccccc4s3)c2)cc1", "Potency": "inconclusive: 39.8 µM [inhibitor, single point]"}
{"smiles": "CN1CCc2c(sc3c2C(=O)NC(c2ccc(-c4cccc(Cl)c4)o2)N3)C1", "note": "(centres undefined)", "Potency": "active: 2.24 µM"}
{"smiles": "CC(=O)c1ccc(NC(=O)CSc2nccn2Cc2ccco2)cc1", "Potency": "inactive"}
{"smiles": "N#CC(=C(/N)Sc1ccccc1N)/C(C#N)=C(/N)Sc1ccccc1N", "Potency": "active: 35.5 µM"}
{"smiles": "O=C1C(Cl)=C(N2CCN(c3ccccc3[N+](=O)[O-])CC2)C(=O)c2ccccc21", "Potency": "active: 3.55 µM"}
{"smiles": "CN(Cc1ccccc1)C(=O)C1CCC(CNS(=O)(=O)c2cccc3cccnc23)CC1", "note": "(centres undefined)", "Potency": "inactive"}
{"smiles": "COc1ccc2nc(NC(=O)CSc3nnc(C)s3)sc2c1", "Potency": "inconclusive: 0.1 µM [inhibitor, full curve, poor fit]"}
{"smiles": "CCN1CCc2c(C#N)c(NCc3ccccc3)nc(NCCO)c2C1", "Potency": "active: 22.4 µM"}
{"smiles": "O=C(CSc1nnc(-c2cccs2)o1)Oc1ccc(Cl)cc1", "Potency": "inactive"}
{"smiles": "CCOc1ccccc1OCCCCOc1ccccc1F", "Potency": "inactive"}
{"smiles": "O=c1oc2c(CN3CCOCC3)c(O)c(Cl)cc2c2c1CCCC2", "Potency": "inconclusive: 17.8 µM [inhibitor, partial curve]"}
{"smiles": "O=C(CSc1n[nH]c(-c2ccccc2)n1)c1ccc(O)c(O)c1", "Potency": "inconclusive: 31.6 µM [inhibitor, single point]"}
{"smiles": "CCOc1ccccc1NC(=O)c1c(NCc2ccc(OC)c(OC)c2OC)sc2c1CCC(C)C2", "note": "(centres undefined)", "Potency": "inconclusive: 12.6 µM [inhibitor, partial curve]"}
{"smiles": "O=c1cccc2n1Cc1cc3ccccc3nc1-2", "Potency": "inconclusive: 15.8 µM [inhibitor, partial curve, poor fit]"}
{"smiles": "O=C(N/N=C/c1cccc(O)c1)c1ccc(NC(=O)c2cccc([N+](=O)[O-])c2)cc1", "Potency": "inconclusive: 3.55 µM [inhibitor, partial curve]"}
{"smiles": "COc1ccc(-c2nc3cc([N+](=O)[O-])ccc3o2)cc1", "Potency": "inconclusive: 2.24 µM [inhibitor, full curve]"}
{"smiles": "O=S(=O)(c1cccs1)N1CN(Cc2ccco2)c2nc3ccccc3nc21", "Potency": "active: 22.4 µM"}
{"smiles": "C=CCc1c(C)nc(C)nc1N/N=C/c1ccc([N+](=O)[O-])cc1", "Potency": "inconclusive: 17.8 µM [inhibitor, partial curve]"}
{"smiles": "COc1cccc(C(=O)N2CCC(N3CCN(Cc4ccc(F)cc4)C(=O)C3=O)CC2)c1", "Potency": "inactive"}
{"smiles": "Cc1ccc(Nc2ncnc3sc(C)c(C)c23)cc1", "Potency": "inconclusive: 8.91 µM [inhibitor, full curve]"}
{"smiles": "O=C(COc1ncnc2cc([N+](=O)[O-])ccc12)NC1CCCCC1", "Potency": "inconclusive: 35.5 µM [inhibitor, partial curve, poor fit]"}
{"smiles": "O=[N+]([O-])c1cccc(/C=C/c2nc(C=Nc3ccccc3)c(O)o2)c1", "Potency": "inconclusive: 1 µM [inhibitor, full curve]"}
{"smiles": "O=C(Oc1ccc(N(C(=O)c2ccncc2)S(=O)(=O)c2cccs2)cc1)c1ccncc1", "Potency": "inconclusive: 12.6 µM [inhibitor, partial curve, poor fit]"}
{"smiles": "COCCNc1cc(N2CCN(C3CCCCC3)CC2)c2noc3c2c1C(=O)c1ccccc1-3", "Potency": "active: 11.2 µM"}
{"smiles": "O=C(CN1CCCCC1)Nc1cccc(Oc2ccccc2)c1", "Potency": "inactive"}
{"smiles": "CCc1ccc(C(C(=O)NCc2ccc(OC)cc2)N(CCOC)C(=O)Cc2cccs2)cc1", "note": "(centres undefined)", "Potency": "inactive"}
{"smiles": "CCn1c(C)[n+](CC)c2ccc(S(=O)(=O)NC)cc21", "Potency": "inactive"}
{"smiles": "Cc1cc(C)cc(N2C(=O)CC(Sc3nnnn3-c3ccccc3)C2=O)c1", "note": "(centres undefined)", "Potency": "inconclusive: 25.1 µM [inhibitor, single point]"}
{"smiles": "C(=N\\Nc1nc(Nc2ccccc2)nc(Nc2ccccc2)n1)/c1cccnc1", "Potency": "inconclusive: 20 µM [activator, partial curve, poor fit]"}
{"smiles": "Cc1ccc(Cl)cc1-n1c(=O)cc(N2CCN(c3ccccc3)CC2)[nH]c1=O", "Potency": "inactive"}
{"smiles": "Cc1cc(C)c(-n2c(SCCS(=O)(=O)c3ccc(F)cc3)n[nH]c2=O)c(C)c1", "Potency": "inactive"}
{"smiles": "N/C(=N/OC(=O)c1cccc([N+](=O)[O-])c1)c1cccc([N+](=O)[O-])c1", "Potency": "inconclusive: 12.6 µM [inhibitor, partial curve]"}
{"smiles": "CC(C)C[C@@H](CC(=O)N[C@H](CC(=O)N[C@@H]1CCNC[C@H]1C(=O)N[C@H](CC(=O)N[C@@H](CCC(=O)O)CC(=O)O)Cc1c[nH]c2ccccc12)C(C)C)NC(=O)[C@@H]1CNCC[C@H]1N", "Potency": "inactive"}
{"smiles": "COCCn1c(SCC(=O)Nc2ccc(Cl)c(S(=O)(=O)N(C)C)c2)nc2ccccc21", "Potency": "inactive"}
{"smiles": "N#CC1=C(N)Oc2n[nH]c(-c3ccncc3)c2C1c1ccsc1", "note": "(centres undefined)", "Potency": "inconclusive: 31.6 µM [inhibitor, partial curve]"}
{"smiles": "COc1ccc2c(CC(=O)N(C)CC3COc4ccccc4O3)coc2c1", "note": "(centres undefined)", "Potency": "inconclusive: 35.5 µM [inhibitor, partial curve, poor fit]"}
{"smiles": "CCCC[C@@H]1C[C@H]1C(NC(=O)c1ccccc1)c1ccc(-c2ccccc2)cc1", "note": "(some centres undefined)", "Potency": "inactive"}
{"smiles": "CCOC(=O)/C(C#N)=C/c1ccc(OCC(=O)Nc2ccc(OC)cc2)c(OC)c1", "Potency": "inconclusive: 8.91 µM [inhibitor, partial curve]"}
{"smiles": "CCC1(C)N=C(c2ccc3c(c2)OCO3)CC(c2ccccc2O)N1", "note": "(centres undefined)", "Potency": "inconclusive: 17.8 µM [inhibitor, partial curve]"}
{"smiles": "COc1ccc(NC(=O)CSc2nnc(-c3nnn(-c4ccc(F)cc4)c3C)o2)cc1", "Potency": "inconclusive: 31.6 µM [inhibitor, partial curve]"}
{"smiles": "O=c1c2ccc([N+](=O)[O-])cc2ncn1CCOc1ccc(Cl)cc1", "Potency": "inconclusive: 20 µM [inhibitor, single point]"}
{"smiles": "Cc1ccc(OCC(=O)Nc2cccc(C(=O)OCc3cc(=O)n4cc(C)sc4n3)c2)cc1", "Potency": "inconclusive: 0.112 µM [inhibitor, full curve, poor fit]"}
{"smiles": "CCOC(=O)c1cnn(-c2nc3sc4c(c3c(=O)[nH]2)CCCC4)c1N", "Potency": "inconclusive: 2.82 µM [inhibitor, full curve]"}
{"smiles": "Brc1ccc(OCc2nnc(SCC3CCCCC3)o2)cc1", "Potency": "inconclusive: 31.6 µM [inhibitor, partial curve]"}
{"smiles": "COC(=O)c1nnc(SC)nc1C(=O)OC", "Potency": "inactive"}
{"smiles": "O=C(NCC(=O)N(c1cccnc1)C(C(=O)NC1CCCC1)c1cccs1)c1ccco1", "note": "(centres undefined)", "Potency": "inactive"}
{"smiles": "O=c1[nH]c2cc3c(cc2cc1CN(CCc1ccccc1)Cc1nnnn1CC1CCCO1)OCO3", "note": "(centres undefined)", "Potency": "inactive"}
{"smiles": "COc1ccc(NC(=O)c2c(Cl)n(C)c3ccccc23)cc1", "Potency": "inconclusive: 1.78 µM [inhibitor, partial curve]"}
{"smiles": "Nc1ncnc2c1ncn2[C@@H]1O[C@H](CO)[C@H](O)[C@H]1O", "Potency": "inconclusive: 15.8 µM [inhibitor, partial curve]"}
{"smiles": "COc1ccccc1N/C=C1/Sc2cc(Cl)ccc2NC1=O", "Potency": "inconclusive: 12.6 µM [inhibitor, partial curve]"}
{"smiles": "c1ccc(N2CCN(c3ncnc4[nH]ncc34)CC2)cc1", "Potency": "inconclusive: 7.94 µM [inhibitor, partial curve]"}
{"smiles": "Cc1c(N=C2SCC(=O)N2/N=C/c2ccccc2Cl)c(=O)n(-c2ccccc2)n1C", "Potency": "inactive"}
{"smiles": "O=[N+]([O-])c1ccc(-c2c(O)c3ccccc3c3nc4ccccc4nc23)cc1", "Potency": "inactive"}
{"smiles": "CC(=O)c1ccc(N/C=C\\C(=O)c2ccc(C)cc2)cc1", "Potency": "inconclusive: 1.12 µM [inhibitor, full curve]"}
{"smiles": "COc1cc(OC)c(NC(=O)NCc2ccc3c(c2)CCN3C(C)=O)cc1Cl", "Potency": "inconclusive: 31.6 µM [inhibitor, single point]"}
{"smiles": "COc1ccccc1C(=O)NC(=S)N1CCc2ccccc21", "Potency": "inactive"}
